Reference: patent US12497461B2, “Human NTCP-binding antibody capable of inhibiting infection of hepatitis B virus (HBV) to human hepatocytes” (priority 2019, dated 2025)

Key:
human NTCP = target: T1, human NTCP (Homo sapiens, UniProt Q14973); assay: In-vitro bile acid transporter activity, HepG2-human NTCP cell line (Example 5); format: cell-based; conditions: 1000 nM; FIG. 13
T1 construct: expressed in transfected cells; host or cells: HepG2 cells, lentiviral transduction
T1 sequence (Q14973 1-349): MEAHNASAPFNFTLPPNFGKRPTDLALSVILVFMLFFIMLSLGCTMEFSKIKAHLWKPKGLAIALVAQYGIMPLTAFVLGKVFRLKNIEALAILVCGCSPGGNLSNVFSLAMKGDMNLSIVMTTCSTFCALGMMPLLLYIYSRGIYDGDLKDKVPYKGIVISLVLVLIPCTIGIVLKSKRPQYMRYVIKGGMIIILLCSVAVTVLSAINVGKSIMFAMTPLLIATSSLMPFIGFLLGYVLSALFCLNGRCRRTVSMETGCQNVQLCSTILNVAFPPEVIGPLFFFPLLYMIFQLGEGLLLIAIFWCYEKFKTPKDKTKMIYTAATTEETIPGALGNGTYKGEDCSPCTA

[1] = target: T2, epitope region-containing peptide fragment (AFPPEVIGPLFFFPLLYMIFQLGEG-biotin) (Homo sapiens, UniProt Q14973); assay: Surface plasmon resonance assay (BIAcore) of antigen binding affinity
T2 sequence (Q14973 273-297 limits assumed): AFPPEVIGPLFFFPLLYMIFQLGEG
Protocol: In short, a carboxymethylated dextran biosensor chip (CM5, BIAcore Inc.) was activated by N-ethyl-N′-(3-dimethylaminopropyl)-carbodiimide hydrochloride (EDC) and N-hydroxysuccinimide (NHS) in accordance with the provider's instruction. An anti-mouse IgG antibody was diluted with 10 mM sodium acetate (pH5.2) up to 30 μg/ml. The dilution was injected at a flow rate of 5 to 10 μl/minute such that the reaction unit (RU) of the protein bound became 9,000 to 14,000 RU. In contrast, an anti-human IgG antibody was diluted with 10 mM sodium acetate (pH5.0) up to 25 μg/ml. The diluted antibody was injected at a flow rate of 5 to 10 μl/minute such that the reaction unit (RU) of the protein bound became 9,000 to 14,000 RU. After injection of each of the anti IgG antibodies, 1 M ethanolamine was injected in order to block unreactive groups. For kinetic measurement, N6HB426 antibody diluted with a running buffer (HBS-P: 10 mM HEPES pH7.5, 150 mM NaCl, 0.005% NP40) up to 10 μg/ml was immobilized onto CM5 chip via the anti-mouse IgG antibody, in advance. To the chip, a solution of an epitope region-containing peptide fragment ([…]-biotin: SEQ ID NO: 24) diluted with the running buffers at different concentrations was added at 25° C. at a flow rate of 10 μl/minute for 2 minutes. In contrast, the recombinant N6HB426 human chimeric IgG4 antibody was diluted with the running buffer up to 10 μg/ml and then was immobilized onto a sensor chip (CM5) via the anti-human IgG antibody in advance. […]
The refractive index of the solution varied in correlation to the mass of a chip surface changed when a peptide fragment molecule bound to N6HB426 antibody on the sensor chip, was monitored in real-time. Using simple one-to-one Langmuir binding model (BIAcore Evaluation software version 3.1) by fitting sensor grams of antigen-antibody association and dissociation at the same time, association rate (Ka) and dissociation rate (Kd) were calculated. A Kd/Ka ratio was calculated to obtain an equilibrium dissociation constant (KD).

[2] = tested on: Daudi-human NTCP transfectant; assay: ADCC activity (calcein-AM release, KHYG-1 FcγRIII effector cells); format: cell-based; conditions: 0.01, 0.1, 1, or 10 μg/ml; E:T 10:1; FIG. 14
HBV = assay: Virus neutralizing capacity in PXB cells, HBs and HBe antigen level (Example 7); format: cell-based, hepatitis B virus (HBV); conditions: 0.01 to 100 μg/mL, 9th day after HBV inoculation
Protocol: To a 96-well (flat-bottom) plate, PXB cells (PhoenixBio, Hiroshima, Japan) were seeded at a density of 7×10^4 cells/well, and cultured in 65 μL of dHCGM medium (DMEM supplemented with 10% FBS, 20 mM HEPES, 44 mM NaHCO3, 100 U/mL penicillin, 100 μg/mL streptomycin, 15 μg/mL L-proline, 0.25 μg/mL insulin, 50 nM dexamethasone, 5 ng/mL EGF, 0.1 mM Asc-2P, 2% DMSO) under the condition of 37° C. and 5% CO2 (Day 0). Day 1 and 3 after initiation of culture, medium exchange was carried out. On Day 8, the medium was exchanged with a medium containing an antibody (60 μL). The medium that contained an antibody contained dHCGM medium (54 μL), 2% DMSO, PBS (−) and normal mouse IgG (FUJIFILM Wako Pure Chemical Corporation, Tokyo, Japan) serving as a negative control, or a recombinant N6HB426 human chimeric IgG4 antibody serving as a test group. The normal mouse IgG was added in a concentration of 100 μg/mL. The recombinant N6HB426 human chimeric IgG4 antibody was added in a concentration of 0.01 μg/mL, 0.1 μg/mL, 1 μg/mL, 10 μg/mL or 100 μg/mL. […] On the 9th day (day 17) after HBV inoculation, the culture supernatant was collected and measured for HBs antigen level and HBe antigen level.

[3] = 25° C., antibody immobilized on CM5 chip

B1: Recombinant N6HB426 human chimera IgG4 antibody: constant region of N6HB426-20 antibody replaced with human IgG4 constant region; heavy chain SEQ ID NO: 21, light chain SEQ ID NO: 24 (antibody)
heavy: QVQLQQSGAELVKPGASVKLSCKASDFTFTEYTIHWIKQMSGQGLEWIGWFYPGSGDIKYSEKFKDKATLTADKSSSTVYMELNRLTSEDSAVYFCARHMRDFRGFYYGRFYFDYWGQGTTLTVSSASTKGPSVFPLAPCSRSTSESTAALGCLVKDYFPEPVTVSWNSGALTSGVHTFPAVLQSSGLYSLSSVVTVPSSSLGTKTYTCNVDHKPSNTKVDKRV[letters of human IgG4 Fc not shown]
light: EIVLTQSPAIMSASPGEKVTITCRASSSVSSSYLHWYQQKSGVSPKLWIYSTSNLASGVPARFSGSGSGTSYSLTINSVEAEDAATYYCQQYSGYRWTFGGGTTLEIKRTVAAPSVFIFPPSDEQLKSGTASVVCLLNNFYPREAKVQWKVDNALQSGNSQESVTEQDSKDSTYSLSSTLTLSKADYEKHKVYACEVTHQGLSSPVTKSFNRGEC
modifications: Heavy chain of human chimera antibody; Light chain of human chimera antibody
Human NTCP
  bile acid uptake ([3H]-taurocholic acid) suppression: not suppressed
[1]
  Kd: ~0.1 nM
[1]; [3]
  Ka (1/Ms) association rate: 1339 M⁻¹ s⁻¹
  Kd (1/s) dissociation rate: 1.73e-07 s⁻¹
[2]
  ADCC activity: not detected
HBV; FIG. 15
  HBs antigen level: decreases in a dose-dependent manner
HBV; FIG. 16
  HBe antigen level: decreases in a dose-dependent manner
